Measurements taken from PubChem BioAssay AID624417 (National Center for Advancing Translational Sciences (NCATS), 2012).
Among all 410,000 compounds or so, about 6,400 (1.6%) were called active. The shares of active, inactive and inconclusive entries below differ from those in the screen. The call rests on the fitted dose curve; in most records, active means well fitted inhibition curve with a large enough effect; inconclusive means small, poorly fitted or top-dose-only effect; inactive means no such curve, though single readings can be large or run the other way. Where the call is inconclusive, the potency comes from a doubtful curve fit.

biological target: Glucagon-like peptide 1 receptor (Homo sapiens) (UniProt P43220); assay: qHTS of GLP-1 Receptor Inverse Agonists (Inhibition Mode); settings: HEK293 GLP-1R CRE-luciferase, luminescence, 24 h, GLP-1R form is constitutively active; activity change, negative = inhibition: at 38.3 µM (top of the series) unless noted; further: nearly all actives have a fitted effect of over 55% in size
Outline: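 HEK293 cells stably co-expressing constitutively active GLP-1R and a cAMP-responsive luciferase reporter were seeded in DMEM with 10% Nu serum, given compounds after 12 h, and incubated 24 h at 37 deg C. Luminescence was then read.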
On the % scale 0 is the no-effect control and ±100 the full control effect; potency means the concentration at half of the fitted maximal effect; tags describe the fitted curve by direction and shape.

Sequence of UniProt P43220 (P43220 whole entry, looked up): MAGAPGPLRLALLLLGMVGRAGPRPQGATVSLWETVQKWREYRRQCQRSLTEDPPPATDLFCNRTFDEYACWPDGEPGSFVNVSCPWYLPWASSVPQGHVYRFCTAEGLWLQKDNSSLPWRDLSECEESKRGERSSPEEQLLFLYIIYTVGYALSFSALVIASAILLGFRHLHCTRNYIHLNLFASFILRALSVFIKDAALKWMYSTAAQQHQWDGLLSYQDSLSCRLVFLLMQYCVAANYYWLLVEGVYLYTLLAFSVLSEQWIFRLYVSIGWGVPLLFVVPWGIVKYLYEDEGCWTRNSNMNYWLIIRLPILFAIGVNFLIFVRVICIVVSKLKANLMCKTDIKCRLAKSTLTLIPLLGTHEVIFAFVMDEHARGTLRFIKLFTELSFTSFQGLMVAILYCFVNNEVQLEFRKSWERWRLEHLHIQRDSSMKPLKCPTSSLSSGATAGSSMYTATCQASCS

Potency, inconclusive:
Cc1ccccc1CN1CCNC(=O)C1CC(=O)NC1CCCCCCC1 (stereo unspecified) 11.2 µM [inhibitor, single point], Cc1cc(C)cc(-n2nnn(C3C/C(=N/NC(N)=S)C4OCC3O4)c2=S)c1 (stereo unspecified) 22.4 µM [inhibitor, single point], COCc1c(C(=O)Nc2ccc(C)c(S(=O)(=O)N3CCOCC3)c2)oc2ccccc12 31.6 µM [inhibitor, single point], CCOC(=O)C1=C[C@@H](C(C)(C)C)N(S(=O)(=O)c2ccc(OC)cc2)[C@H]1c1ccccc1 35.5 µM [inhibitor, partial curve, poor fit], O=c1cc(NS(=O)(=O)c2ccccc2)nc(SCc2ccc(Cl)cc2)[nH]1 10 µM [inhibitor, partial curve, poor fit], COC(=O)c1c(NC(=O)c2ccc(S(=O)(=O)N(C)C3CCCCC3)cc2)sc2c1CCN(C)C2 11.2 µM [inhibitor, partial curve, poor fit], CC(C)C[C@H](NC(=O)OC(C)(C)C)C(=O)N/N=C/C1=Cc2ccccc2OC1C (stereo partly specified) 8.91 µM [inhibitor, single point], O=c1c2ccccc2nnn1CSc1ccccc1F 28.2 µM [inhibitor, single point], CCCN(CCC)C(=O)C(c1ccccc1)C1(O)CCCCC1 (stereo unspecified) 28.2 µM [inhibitor, single point], N/C(=N\OC(=O)C12CC3CC(CC(C3)C1)C2)c1ccccn1 10 µM [inhibitor, partial curve, poor fit], COc1cc(C(=O)NCC(=O)N/N=C/c2ccc(-c3cccc([N+](=O)[O-])c3)o2)cc(OC)c1OC 12.6 µM [inhibitor, partial curve], COc1cc(C(C(=O)NC2CCCCC2)N(C(=O)Cc2c[nH]c3ccccc23)c2ccccc2C)cc(OC)c1OC (stereo unspecified) 11.2 µM [inhibitor, partial curve, poor fit], Cc1ccc(NC(=O)CSc2nnc(-c3cccnc3)n2-c2ccc(C)cc2)cc1 1 µM [inhibitor, full curve, poor fit], Cc1ccc(C(c2nnnn2Cc2cccs2)N2CCN(C(=O)c3ccco3)CC2)cc1 (stereo unspecified) 15.8 µM [inhibitor, partial curve, poor fit], O=C(Cn1c(=O)oc2cc(S(=O)(=O)N3CCCCC3)ccc21)NCc1ccc(F)cc1 10 µM [inhibitor, partial curve, poor fit], CCCc1c(-c2cccc(Br)c2)ncn1Cc1ccccc1OC 12.6 µM [inhibitor, partial curve, poor fit], c1ccc2c(N3CCCC3)nc(-c3ccncc3)nc2c1 10 µM [inhibitor, partial curve, poor fit], Cc1ccc(-c2cnc(C(O)c3ccc(C)cc3)[nH]2)cc1 (stereo unspecified) 28.2 µM [inhibitor, partial curve, poor fit], CC(C)(C)c1ccc(COC(=O)CN2C(=O)NC3(CCCC3)C2=O)cc1 10 µM [inhibitor, partial curve, poor fit], O=C(NNC(=O)c1cc(S(=O)(=O)N2CCCCC2)ccc1Cl)c1ccccc1O 28.2 µM [inhibitor, single point], Cc1sc2ncnc(N3CCC(C(=O)NNC(=O)c4ccc(Cl)cc4)CC3)c2c1C 10 µM [inhibitor, partial curve], Cc1cc(NC(=O)CC2Oc3ccccc3NC2=O)ccc1Br (stereo unspecified) 28.2 µM [inhibitor, single point], Cc1cccc(CSc2ccc(-c3cccs3)nn2)c1 28.2 µM [inhibitor, single point], NS(=O)(=O)c1ccc(NNC(=O)c2ccccc2C(=O)O)cc1 10 µM [inhibitor, partial curve], CC(CNc1ccc(Cl)cc1)(CNc1ccc(Cl)cc1)[N+](=O)[O-] 7.94 µM [inhibitor, partial curve, poor fit], COCc1cc(C)nc(OCC(=O)N/N=C/c2ccccc2O)c1C#N 28.2 µM [inhibitor, single point], O=[N+]([O-])c1cc2c(c(CSc3nnnn3-c3ccc(O)cc3)c1)OCOC2 28.2 µM [inhibitor, single point], CC1(C(=O)NC2CCN(Cc3ccccc3)CC2)CCN1Cc1ccc2ccccc2c1 (stereo unspecified) 22.4 µM [inhibitor, single point], O=C(N/N=C/c1cc(Br)ccc1O)c1ccncc1 1.12 µM [inhibitor, full curve, poor fit]

Potency, active:
CC(C)(C)NC(=O)CSc1ncnc2c1nnn2Cc1ccccc1Cl 3.98 µM

Activity change, negative = inhibition, inactive:
CC1(C)Cc2c(sc3[nH]c(=S)n(Cc4ccco4)c(=O)c23)CO1 -22.5%, COc1ccc(-c2nc(Cn3c(SCc4ccccc4F)nc4cccnc43)c(C)o2)cc1 -4.7%, COc1ccc(CC(=O)NC2CC(=O)N(c3ccc(C)c(C)c3)C2)cc1OC (stereo unspecified) 5.18%, CCCCn1c(N)c(N(CCOC)C(=O)c2cc3c(s2)CCC(C)C3)c(=O)[nH]c1=O (stereo unspecified) -15.6%, CC(=O)NN=C(C)c1ccc(NC(=O)C2CC2)cc1 -13.4%, Cc1cc(C)cc(C(=O)NC(CC(N)=O)c2ccc(NCCN3CCOCC3)c([N+](=O)[O-])c2)c1 (stereo unspecified) 34.2%, Cc1cc(C(=O)NCCCn2ccnc2)sc1-c1ccccc1 -18.1%, Cc1ccc2onc(CC(=O)N3CCN(c4ccccc4)CC3)c2c1 1.45%, N#C/C(=C\c1cc(Br)c(O)c(Br)c1)c1nc2ccccc2c(=O)[nH]1 -7.64%, CCOc1ccc(NC(=O)C(C)n2c(=O)cc(C)c3c(C)nn(-c4ccccc4)c32)cc1 (stereo unspecified) 11.7%, Cc1cccc(S(=O)(=O)c2cn(C)c3cc(N4CCC(C)CC4)c(F)cc3c2=O)c1 1.92%
